Assay results published in PubChem BioAssay (NCI).
“And” between values parts separate entries of the source, which are not always exact repeats. Equal entries are not always repeated.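 48-hour exposure; five concentrations; linearly interpolated endpoints. GI50 = concentration required for 50% inhibition of growth. TGI: concentration producing complete growth inhibition.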

System: NCI-H322M lung
Assay: NCI anticancer screen, dose series, 48 h

SMILES | TGI | GI50
CCC1c2[nH]c3ccccc3c2C[C@H]2C(=O)NC(C)C(=O)N12 (some centres undefined) | > 100 µM | –
Cn1c(=O)nc2n(-c3ccc(Br)cc3)c3ccccc3nc-2c1=O | 26 µM | –
O=[N+]([O-])c1ccccc1/C=N\NC(=S)N/N=C/c1ccccc1[N+](=O)[O-] | 89.1 µM | 7.29 µM
Nc1n[n+]([O-])c2ccc(Cl)cc2[n+]1[O-] | 73.8 µM | –
O=C(Nc1cc(Cl)c(I)c(Cl)c1)C(F)(F)F | 78.3 µM | –
N[C@H]1CCC[C@@H](O)C1O (some centres undefined) | > 100 µM | –
O=C(c1ccccc1)c1nc2c(Cl)ccc(Cl)c2cc1C(Br)Br | 2.4 µM | –
CCCCC[C@@H]1CCCC2NC(CCCCCO[Si](c3ccccc3)(c3ccccc3)C(C)(C)C)CCC21 (some centres undefined) | 28.7 µM | –
CC(C)CC1c2[nH]c3ccccc3c2C[C@H]2C(=O)NC(Cc3c[nH]c4ccccc34)C(=O)N12 (some centres undefined) | 45.1 µM | –
COC(=O)C1(Cc2ccc3c(c2)CCC3)Cc2ccc3c(c2C1=O)CCC3 (centres undefined) | > 100 µM | –
CCOC(CBr)OC1C(=O)OCC1(C)C (centres undefined) | > 100 µM | –
Cc1nc2c(Cl)cc(Cl)cc2c2c1CCO2 | > 100 µM | –
O=c1c(NCc2ccccc2)c(C2(c3ccccc3F)SCCCS2)c1=O | > 100 µM | –
COc1ccc(/C=C\c2cc(OC)c(OC)c(OC)c2)cc1NC(=O)/C=C/c1ccc(OC)c(OC)c1 | > 100 µM | > 100 µM
O=C(O)/C=C/c1c2ccc(=O)c(O)c-2oc2c(O)c(O)ccc12 | > 100 µM | –
CC(C)(C)OC(=O)N(CCCCN(CCCn1c2c(c3ccccc3c1=O)C(=O)c1ccccc1-2)C(=O)OC(C)(C)C)CCCn1c2c(c3ccccc3c1=O)C(=O)c1ccccc1-2 | > 100 µM | > 100 µM
O=[N+]([O-])c1ccc2c(c1)nc1n2C(c2c(F)cccc2F)SC1 (centres undefined) | > 100 µM | –
CN(C)CCNC(=O)c1ccc2c(c1)oc1cc3ccccc3c(=O)n12 | 30.1 µM | 12.4 µM
CC(C)(C)OC(=O)NC(CSCc1ccc(C(=O)c2ccccc2)cc1)C(=O)N1CCN(CCCCN2c3ccccc3Sc3cc(N=[N+]=[N-])ccc32)CC1 (centres undefined) | > 100 µM | –
Nc1nnc(N)n1N | > 100 µM | –
COc1ccc(Cn2cc3c(c2-c2ccccc2)CCc2cnoc2-3)cc1 | > 100 µM | 2.09 µM
Nc1nc(N)nc(CCCCc2nc(N)nc(N)n2)n1 | > 100 µM | –
COc1cc(/C=C2\C(=O)N(c3cccc(NC(C)=O)c3)C(c3ccccc3)S2(=O)=O)cc(OC)c1OC (centres undefined) | > 100 µM | –
C/C(Cc1ccc2c(c1)OCO2)=N\N=c1\sc2ccccc2n1C | > 100 µM | –
CC1OC(NCCNCCNC2OC(C)C(O)C(O)C2O)C(O)C(O)C1O (centres undefined) | > 100 µM | –
CCN(Cc1ccc(Cl)c(Cl)c1)c1ccc2nc(N)nc(N)c2c1C | 2.27 µM | < 0.0264 µM

SMILES | TGI | GI50
O=[N+]([O-])c1ccc(C[P+]2(c3ccccc3)CCCCC2)cc1 (tested in a mixture with another compound) | > 100 µM | –
O=C(O)c1cccc([As]=[As]c2cccc(C(=O)O)c2)c1 (centres undefined) | > 100 µM | –
Nc1cc(C2CCCc3c2[nH]c2ccccc32)ccc1O (centres undefined) | > 100 µM | –
NCC(=O)Nc1ccc(Cl)cc1C(=O)c1ccc[nH]1 | > 100 µM | –
CN(C)Cc1ccc(NC(=O)c2cncc(C#Cc3cnc(N)c4ncccc34)c2)cc1C(F)(F)F | 3.18 µM | 1.71 µM
COc1ccc(C2=C(c3ccc(OC)cc3)C(=O)OC2)cc1 | > 51.7 µM | 3.69 µM
CCN(CC)CCC(=O)/C=C/c1ccc(Cl)c(Cl)c1 | > 10 µM | –
COC(=O)c1csc(-c2csc(CCNC(=O)OC(C)(C)C)n2)n1 | > 100 µM | –
Cc1cc(C)c2c(=N)c3ccccc3n(CCCCCCCCn3c4ccccc4c(=N)c4c(C)cc(C)nc43)c2n1 | 2.37 µM | –
Nc1c(C(=O)c2cccc(-c3cccnc3)c2)cnn1-c1ccc(F)cc1 | > 25 µM | > 25 µM
COc1ccc(-c2c(C#N)c(N)[nH]c(=S)c2C#N)cc1 | > 100 µM | –
CNc1c2ccccc2nc2occ(Cl)c12 | 74.9 µM | 20.3 µM
CN(C)CCCNc1ccnc2c([N+](=O)[O-])cccc12 | 35.9 µM | –
O=C1OC(c2ccc([N+](=O)[O-])cc2)=N/C1=C\c1ccc(Cl)cc1 | > 100 µM | –
COc1cc(/C=C/C(=O)CC(=O)/C=C/c2cc(C)c(O)c(OC)c2)cc(C)c1O | > 100 µM | –
CCC1(O)C(=O)OCc2c1cc1n(c2=O)Cc2cc3cc4c(cc3nc2-1)OCO4 (centres undefined) | 4.51 µM | –
C(=N\NC1=NCCCCN1)/c1ccc2ccccc2c1 | > 100 µM | –
Nc1[nH]nc(Nc2ccccc2)c1-c1nc2ccccc2s1 | 11.7 µM | 2.2 µM
CC(=O)OC1(Sc2ccccc2)CC2[C@H]3COC(C)(C)O[C@H]3CC[C@@]2(C)CC1=O (some centres undefined) | > 100 µM | –
COc1ccc(-c2nc(NC(=O)CS(=O)(=O)c3ccc(F)cc3)sc2C)cc1 | > 100 µM | 42.3 µM
CC(=O)CC[N+](C)(C)C | > 100 µM | –
CCc1cn2c(/C=N/N=C(N)N)c(-c3cc(C)c(Cl)cc3Cl)nc2s1 | 3.98 µM | –
COc1ccc(-c2cc(-c3ccc(C)cc3)n(C3OC(COC(C)=O)C(OC(C)=O)C(OC(C)=O)C3OC(C)=O)c(=S)c2C#N)cc1 (centres undefined) | > 100 µM | –
CCN(Cc1cc(Cl)cc(C)c1O)Cc1c(O)ccc2ccccc12 | 32.4 µM | –
S=C1SCC2CCCN12 (centres undefined) | > 100 µM | –
O=C(c1ccc(Cl)cc1Cl)N1CCN(C(=O)c2ccc(Cl)cc2Cl)C1=S | 41.4 µM | 18.1 µM

SMILES | TGI | GI50
CCOC(=O)/C(C(N)=O)=C(\O)C(=O)/C=C(\O)c1ccc(Cl)cc1 | > 100 µM | –
O=CNC(Cc1cnc[nH]1)C(=O)O (centres undefined) | > 100 µM | –
COc1ccc(-n2cc(-c3cc(OC)c(OC)c(OC)c3)nc2SCc2cccc(C#N)c2)cc1OC | > 100 µM | > 100 µM
COC(=O)CNC(=O)C(=O)c1c(O)c(O)c(C(C)C)c2cc(C)c(-c3c(C)cc4c(C(C)C)c(O)c(O)c(C(=O)C(=O)NCC(=O)OC)c4c3O)c(O)c12 | 10.6 µM | 1.74 µM
CC(=O)/C=C1\CC(=O)N(C)c2ccccc2N1 | > 100 µM | –
O=C1/C(=C/c2cccc([N+](=O)[O-])c2)N=C(c2ccccc2)N1c1nc2ccc(Sc3ccccc3)cc2[nH]1 | > 100 µM | –
COc1ccc(SCc2cc(OC)ccc2OC)cc1 | > 100 µM | –
CCC/C=C/C=C/C(=O)OC1/C(=C/C(=O)OC)CC2CC(C(C)O)OC(=O)CC(O)CC3CC(OC(C)=O)C(C)(C)C(O)(CC4C/C(=C/C(=O)OC)CC(/C=C/C(C)(C)C1(O)O2)O4)O3 (centres undefined) | 10.9 µM and 11 µM and > 12.5 µM | –
O=S(=O)(F)Cc1ccccc1 | > 100 µM | –
COC(=O)[C@@]12CSC[C@]1(C(=O)OC)N[C@@H](c1ccccc1O)C2 | > 100 µM | –
O=NNc1ccc(-c2ccccc2)cn1 | > 88.6 µM | –
O=C(CC(C(=O)c1ccsc1)c1cccs1)c1ccccc1 (centres undefined) | > 100 µM | –
Nc1cc(CO)cc(Nc2c3ccccc3nc3ccccc23)c1 | 64.3 µM | –
CC(C)(C)OC(=O)NCCCCCCCCCn1c2c(c3ccccc3c1=O)C(=O)c1ccccc1-2 | > 100 µM | > 100 µM
O=C(O)c1ccc2c(O)c(O)ccc2c1 | 64.3 µM | –
Cc1cccc(NC(=O)c2c(N)[n+]([O-])c3ccccc3[n+]2[O-])c1 | 30.9 µM | –
N=c1oc2cc(O)ccc2cc1C(=O)Nc1ccccn1 | > 100 µM | –
CCOP(=O)(OCC)C(c1ccc(F)cc1)N(C(=O)NC(F)(F)F)c1ccc(F)cc1 (centres undefined) | > 100 µM | –
COc1ccc2nc3cc(Cl)ccc3c(Sc3ccc(N)cc3)c2c1 | 31.7 µM | –
C=CC[P@]1(=O)O[C@H](c2ccccc2)C(C)N1C(C)C (some centres undefined) | > 100 µM | –
O=C1c2ccccc2C(=O)c2c1ccc1conc21 | 26 µM | –
N#CC1=C(N)NC(=O)C(C#N)C12Nc1ccccc1S2 (centres undefined) | > 100 µM | > 100 µM
NCCCn1c(Cl)nc2ccccc21 | > 100 µM | –
Nc1cc(OCC2CCCCC2)nc(N)n1 | > 100 µM | –
N#CN1CC[C@@H]2CC3(CCC2C1)OCCO3 (some centres undefined) | > 100 µM | –
COc1cc(/C=C/c2ccc(OC)c(OC)c2)oc(=O)c1 | > 250 µM | –

SMILES | TGI | GI50
COc1ccc(-c2cc(=O)c3c(O)c(O)c(OC)cc3o2)cc1O | > 100 µM | –
COc1cc2ncnc(NS(=O)(=O)c3cc4ccccc4s3)c2cc1OC | > 100 µM | –
CN(C)S(=O)(=O)c1cccc(C(=O)Nc2nc(-c3ccc(F)c(F)c3)cs2)c1 | > 100 µM | 26.6 µM
COc1ccc(C2CC(c3sc(Nc4ccc(C)cc4)nc3C)=NN2)cc1 (centres undefined) | 51.2 µM | –
CCN(CC)Cc1cc(N=Nc2c(O)ccc3c(N=Nc4ccc(O)c(CN(CC)CC)c4)c(O)ccc23)ccc1O | 17 µM | –
O=C1c2c(c3c4cc(F)ccc4oc3c3[nH]c4ccccc4c23)C(=O)N1O | > 100 µM | 4.23 µM
C=C1C(=O)OC2CC1C(OC(=O)/C=C/c1ccccc1)C/C(C)=C/CC/C(C)=C/CCC2(C)O (centres undefined) | 13.7 µM | –
O=C(Cn1c2ccc(Br)cc2c2nc3ccccc3nc21)NCc1ccccc1 | > 100 µM | –
COc1ccc2nc3cc(Cl)ccc3c(Nc3ccccc3-c3ccccc3Nc3c4ccc(Cl)cc4nc4ccc(OC)cc34)c2c1 | > 78 µM | –
COc1ccc(C2=Nn3c(nnc3-c3ccc(F)c(Cl)c3)SC2)cc1 | > 100 µM | > 100 µM
ClCCCN1CCN(CCCl)CC1 | > 1000 µM | –
COC1CCCc2c(OC(C)=O)ccc(OC(C)=O)c21 (centres undefined) | > 100 µM | –
CC1=CC(=O)NP(=O)(Oc2ccc(Cl)cc2)N1 (centres undefined) | > 100 µM | –
CC1=NNC(=O)C1C1(C(=O)O)CC(c2c[nH]c3ccccc23)=NC(=S)N1 (centres undefined) | > 100 µM | –
CC1(Cl)C(=O)NC(=O)N([C@H]2C[C@H](O)[C@@H](CO)O2)C1N=[N+]=[N-] (some centres undefined) | > 100 µM | –
CCc1nc(N)nc(N)c1C#CC(C)c1ccc(-c2ccncc2)cc1Cl (centres undefined) | 6.53 µM and 16.5 µM | 0.0363 µM and 0.208 µM
O=C(N/N=C\c1ccc(Cl)cc1)Nc1ccc2ccccc2c1 | > 100 µM | –
O=C1C=C(NCCc2ccc(O)c([N+](=O)[O-])c2)C(=O)c2[nH]cnc21 | 63.1 µM | –
COc1cc(C[C@H]2COC(=O)[C@]2(O)Cc2ccc(OCc3ccccc3)c(OC)c2)ccc1OCc1ccccc1 | > 100 µM | > 100 µM
COc1ccc2[nH]c3ccc4cc[n+](CCN5CCC(C6CCN(CC[n+]7ccc8ccc9[nH]c%10ccc(OC)cc%10c9c8c7)CC6)CC5)cc4c3c2c1 | 50 µM and > 86.3 µM | 1.8 µM
O=c1cc(NNc2ccccc2)[nH]c(=O)[nH]1 | 40.2 µM | –
N=C1OC(CN2CCN(c3ccccc3)CC2)CN1C(=O)Nc1ccccc1 (centres undefined) | > 100 µM | –
COc1cc(C[C@@]2(C)[C@@H]3CCC[C@H](CO)[C@@]3(C)CC[C@@H]2C)c(Cl)c(OC)c1 | 30.9 µM | –
